# Some of the results follow.
# Target: no compound (DMSO)
# Assay: log2 fold change of degron read counts, EGFP-low vs EGFP+ sorted cells; higher = lower degron-EGFP level without compound (poor expression or instability)
# Settings: compound: DMSO control; 18 h
# 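Further: jurkat cells carrying a lentiviral library of mutant zinc finger degrons fused to EGFP plus mCherry, mCherry+ cells FACS sorted, degron abundance counted by next-generation sequencing.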
row,Sequence,log2 fold change of degron read counts
1,FNCPICGANFTQKGNLLRHIKL,-0.957
2,FCCPICGRIFTQKGNLLRHIKL,0.567
3,FRCNQCGHQFTQKGNLLRHIKL,-0.247
4,FACPQCGAKFTQKGNLLRHIKL,-0.584
5,FSCDICGARFTQKGNLLRHIKL,-2.4
6,FACPICGATFTQKGNLLRHIKL,-0.494
7,FECEQCGARFTQKGNLLRHIKL,-1.9
8,FLCPICGRMFTQKGNLLRHIKL,1.09
9,FICDQCGANFTQKGNLLRHIKL,-2.14
10,FVCNQCGRTFTQKGNLLRHIKL,-1.13
11,FQCPQCGAFFTQKGNLLRHIKL,-0.575
12,FHCEQCGAHFTQKGNLLRHIKL,-1.55
13,LRCEICGFICTQKGNLLRHIKL,0.664
14,FFCDICGAIFTQKGNLLRHIKL,-0.286
15,FLCPVCGANFTQKGNLLRHIKL,-0.302
16,FSCPICGHTFTQKGNLLRHIKL,-0.94

row,Sequence,log2 fold change of degron read counts
1,FSCEICGRLFTQKGNLLRHIKL,-0.932
2,LCCNQCGFECTQKGNLLRHIKL,-0.229
3,FICPICGACFTQKGNLLRHIKL,0.435
4,FWCPICGHKFTQKGNLLRHIKL,0.588
5,LFCEICGFDCTQKGNLLRHIKL,0.442
6,FKCEICGHRFTQKGNLLRHIKL,-1.47
7,FMCNQCGRHFTQKGNLLRHIKL,-0.805
8,FHCPICGHWFTQKGNLLRHIKL,0.535
9,FQCDVCGAAFTQKGNLLRHIKL,-1.04
10,FQCNVCGACFTQKGNLLRHIKL,-0.799
11,LKCEICGFSCTQKGNLLRHIKL,-0.739
12,FMCSVCGHAFTQKGNLLRHIKL,-1.48
13,FECNQCGRMFTQKGNLLRHIKL,-1.38
14,FWCEICGHNFTQKGNLLRHIKL,0.156
15,LFCPICGFTCTQKGNLLRHIKL,1.38
16,FKCDICGAHFTQKGNLLRHIKL,-1.3
